# The supplement of paper PMC11876631
# Substitutions are numbered along the chain they refer to. Names may count otherwise. ± gives the standard deviation of the averaged measurements. Laboratory Escherichia coli strains with one amino-acid change in an essential protein, pooled on minimal glucose agar with carbenicillin or gentamicin at twice the control MIC (plus kanamycin and chloramphenicol for the plasmids), 48 h. Fold change of barcode share against drug-free plates; higher = less susceptible. Active = above 20 in both replicates (the paper's putatively resistant). '<' = one read or none on drug, '>' = one read or none on a drug-free plate. Shares are relative, so most strains fall below 1 when a few take over. Listed are strains with at least 15 reads on both drug-free plates, and hits; most hits rest on fewer reference reads. Replicate rank correlation about 0.5. Edits are read from barcodes.
# B1: purK L239D (protein)
# chain: MKQVCVLGNGQLGRMLRQAGEPLGIAVWPVGLDAEPAAVPFQQSVITAEIERWPETALTRELARHPAFVNRDVFPIIADRLTQKQLFDKLHLPTAPWQLLAERSEWPAVFDRLGELAIVKRRTGGYDGRGQWRLRANETEQLPAECYGECIVEQGINFSGEVSLVGARGFDGSTVFYPLTHNLHQDGILRTSVAFPQANAQQQAQAEEMLSAIMQELGYVGVMAMECFVTPQGLLINEDAPRVHNSGHWTQNGASISQFELHLRAITDLPLPQPVVNNPSVMINLIGSDVNYDWLKLPLVHLHWYDKEVRPGRKVGHLNLTDSDTSRLTATLEALIPLLPPEYASGVIWAQSKFG
# B2: purK L239P (protein)
# chain: B1 chain with D239P
# B3: purK M282W (protein)
# chain: B1 chain with D239L, M282W
# B4: purK M282Q (protein)
# chain: B1 chain with D239L, M282Q
# B5: purK M282D (protein)
# chain: B1 chain with D239L, M282D
# B6: purK I283Q (protein)
# chain: B1 chain with D239L, I283Q
# B7: purK L7W (protein)
# chain: B1 chain with L7W, D239L
# B8: pyrD I71A (protein)
# chain: MYYPFVRKALFQLDPERAHEFTFQQLRRITGTPFEALVRQKVPAKPVNCMGLTFKNPLGLAAGLDKDGECADALGAMGFGSIEIGTVTPRPQPGNDKPRLFRLVDAEGLINRMGFNNLGVDNLVENVKKAHYDGVLGINIGKNKDTPVEQGKDDYLICMEKIYAYAGYIAINISSPNTPGLRTLQYGEALDDLLTAIKNKQNDLQAMHHKYVPIAVKIAPDLSEEELIQVADSLVRHNIDGVIATNTTLDRSLVQGMKNCDQTGGLSGRPLQLKSTEIIRRLSLELNGRLPIIGVGGIDSVIAAREKIAAGASLVQIYSGFIFKGPPLIKEIVTHI
# B9: pyrD I71W (protein)
# chain: B8 chain with A71W
# B10: pyrD I71Q (protein)
# chain: B8 chain with A71Q
# B11: pyrD I71P (protein)
# chain: B8 chain with A71P
# B12: pyrD M159A (protein)
# chain: B8 chain with A71I, M159A
# B13: pyrD L227W (protein)
# chain: B8 chain with A71I, L227W
# Biological target: Escherichia coli (laboratory strain)
# Assay: barcode share on antibiotic plates over drug-free plates; higher = less susceptible
# Procedure: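 A pool of E. coli strains, each edited to carry one amino-acid change in an essential protein, was grown for 48 h on minimal glucose agar with or without antibiotic; strain barcodes were sequenced; mean of two replicates.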
# [1] = antibiotic: carbenicillin, 2× MIC (3.1 µg/mL)
# [2] = antibiotic: gentamicin, 2× MIC (MIC 0.45 µg/mL)
Protein,fold change of barcode share [1],fold change of barcode share [2]
B1,0.541 ± 0.21,–
B2,0.359 ± 0.12,< 0.00277
B3,0.329 ± 0.1,< 0.0188
B4,0.358 ± 0.1,< 0.0156
B5,0.427 ± 0.067,–
B6,0.463 ± 0.12,< 0.0184
B7,0.545 ± 0.25,< 0.0171
B8,0.403 ± 0.053,< 0.015
B9,0.351 ± 0.05,< 0.00537
B10,0.562 ± 0.0077,0.0167 ± 0.01
B11,0.259 ± 0.098,< 0.00851
B12,0.467 ± 0.031,< 0.00422
B13,0.455 ± 0.021,< 0.015
